# Measurements published in publication PMC9911399, “Two distinct binding modes provide the RNA-binding protein RbFox with extraordinary sequence specificity”.
# Residue numbers refer to the chain shown, from its start. Some of the results follow.
# B1: UCUUCGU (DNA:RNA)
# RNA: GGGAGACCGGAAUUCAGAUUGUCCUCUUCGUUUAAAUCCCGUCGUAGCCACCA
# DNA 1: CAATCTGAATTCCGGTCTCCC
# DNA 2: TGGTGGCTACGACGGGATT
# B2: ACGGAUC (DNA:RNA)
# RNA: B1 RNA with U25A, U27G, U28G, C29A, G30U, U31C
# DNA 1: CAATCTGAATTCCGGTCTCCC
# DNA 2: TGGTGGCTACGACGGGATT
# B3: CGAAAGC (DNA:RNA)
# RNA: B1 RNA with U25C, C26G, U27A, U28A, C29A, U31C
# DNA 1: CAATCTGAATTCCGGTCTCCC
# DNA 2: TGGTGGCTACGACGGGATT
# B4: GCAUAUC (DNA:RNA)
# RNA: B1 RNA with U25G, U27A, C29A, G30U, U31C
# DNA 1: CAATCTGAATTCCGGTCTCCC
# DNA 2: TGGTGGCTACGACGGGATT
# B5: GCGGCGC (DNA:RNA)
# RNA: B1 RNA with U25G, U27G, U28G, U31C
# DNA 1: CAATCTGAATTCCGGTCTCCC
# DNA 2: TGGTGGCTACGACGGGATT
# B6: AAAUAGC (DNA:RNA)
# RNA: B1 RNA with U25A, C26A, U27A, C29A, U31C
# DNA 1: CAATCTGAATTCCGGTCTCCC
# DNA 2: TGGTGGCTACGACGGGATT
# B7: CCCGAGA (DNA:RNA)
# RNA: B1 RNA with U25C, U27C, U28G, C29A, U31A
# DNA 1: CAATCTGAATTCCGGTCTCCC
# DNA 2: TGGTGGCTACGACGGGATT
# B8: UGAUGUA (DNA:RNA)
# RNA: B1 RNA with C26G, U27A, C29G, G30U, U31A
# DNA 1: CAATCTGAATTCCGGTCTCCC
# DNA 2: TGGTGGCTACGACGGGATT
# B9: CAUACUG (DNA:RNA)
# RNA: B1 RNA with U25C, C26A, U28A, G30U, U31G
# DNA 1: CAATCTGAATTCCGGTCTCCC
# DNA 2: TGGTGGCTACGACGGGATT
# B10: GCACUAG (DNA:RNA)
# RNA: B1 RNA with U25G, U27A, U28C, C29U, G30A, U31G
# DNA 1: CAATCTGAATTCCGGTCTCCC
# DNA 2: TGGTGGCTACGACGGGATT
# B11: UAUAUGG (DNA:RNA)
# RNA: B1 RNA with C26A, U28A, C29U, U31G
# DNA 1: CAATCTGAATTCCGGTCTCCC
# DNA 2: TGGTGGCTACGACGGGATT
# B12: CAUCAGG (DNA:RNA)
# RNA: B1 RNA with U25C, C26A, U28C, C29A, U31G
# DNA 1: CAATCTGAATTCCGGTCTCCC
# DNA 2: TGGTGGCTACGACGGGATT
# B13: UAGUCUC (DNA:RNA)
# RNA: B1 RNA with C26A, U27G, G30U, U31C
# DNA 1: CAATCTGAATTCCGGTCTCCC
# DNA 2: TGGTGGCTACGACGGGATT
# B14: UGGCCAC (DNA:RNA)
# RNA: B1 RNA with C26G, U27G, U28C, G30A, U31C
# DNA 1: CAATCTGAATTCCGGTCTCCC
# DNA 2: TGGTGGCTACGACGGGATT
# B15: CUGGUGA (DNA:RNA)
# RNA: B1 RNA with U25C, C26U, U27G, U28G, C29U, U31A
# DNA 1: CAATCTGAATTCCGGTCTCCC
# DNA 2: TGGTGGCTACGACGGGATT
# B16: UAGUGAC (DNA:RNA)
# RNA: B1 RNA with C26A, U27G, C29G, G30A, U31C
# DNA 1: CAATCTGAATTCCGGTCTCCC
# DNA 2: TGGTGGCTACGACGGGATT
# B17: CAACAGU (DNA:RNA)
# RNA: B1 RNA with U25C, C26A, U27A, U28C, C29A
# DNA 1: CAATCTGAATTCCGGTCTCCC
# DNA 2: TGGTGGCTACGACGGGATT
# B18: AUCAUAC (DNA:RNA)
# RNA: GGGAGACCGGAAUUCAGAUUGUCCAUCAUACUUAAAUCCCGUCGUAGCCACCA
# DNA 1: CAATCTGAATTCCGGTCTCCC
# DNA 2: TGGTGGCTACGACGGGATT
# B19: UUUAUAC (DNA:RNA)
# RNA: B18 RNA with A25U, C27U
# DNA 1: CAATCTGAATTCCGGTCTCCC
# DNA 2: TGGTGGCTACGACGGGATT
# B20: UCGGCUA (DNA:RNA)
# RNA: B1 RNA with U27G, U28G, G30U, U31A
# DNA 1: CAATCTGAATTCCGGTCTCCC
# DNA 2: TGGTGGCTACGACGGGATT
# Molecular target: T1, RBFOX1 RRM RbFoxmut (Fox-RRM*) (Homo sapiens, UniProt Q9NWB1 109-208, R118D;E147R;N151S;E152T)
# T1 sequence: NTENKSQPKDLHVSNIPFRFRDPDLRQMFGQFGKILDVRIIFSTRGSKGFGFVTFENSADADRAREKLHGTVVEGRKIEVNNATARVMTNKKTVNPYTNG
# Experiment: EMSA; HiTS-Eq, 1 nM pool, 10 min; buffer printed only for the single-RNA assays: 10 mM Tris pH 7.5, 150 mM NaCl, 3.4 mM EDTA, 0.001% NP-40, 30 C
# Conditions: tags: His6 N-terminal (pET28a); label: 5' 32P
# Outline: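 These values rest on relative association constants, computed from read-count changes of each RNA species versus the control reaction and normalised to the cognate motif. Reads came from free RNA recovered by 8% native PAGE after purified RbFox RRM (wild type or mutant) at increasing concentrations was equilibrated for 10 min in 50 µL with 1 nM of a 5′-radiolabelled pool with 7 randomized nucleotides and DNA-annealed flanks.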
row,Binder,binding signal
1,B1,0.0981 KA relative to UGCAUGU
2,B2,0.125 KA relative to UGCAUGU
3,B3,0.0735 KA relative to UGCAUGU
4,B4,0.073 KA relative to UGCAUGU
5,B5,0.103 KA relative to UGCAUGU
6,B6,0.0833 KA relative to UGCAUGU
7,B7,0.0631 KA relative to UGCAUGU
8,B8,0.195 KA relative to UGCAUGU
9,B9,0.0879 KA relative to UGCAUGU
10,B10,0.0935 KA relative to UGCAUGU
11,B11,0.0856 KA relative to UGCAUGU
12,B12,0.0914 KA relative to UGCAUGU
13,B13,0.0875 KA relative to UGCAUGU
14,B14,0.0849 KA relative to UGCAUGU
15,B15,0.0924 KA relative to UGCAUGU
16,B16,0.067 KA relative to UGCAUGU
17,B17,0.0564 KA relative to UGCAUGU
18,B18,0.108 KA relative to UGCAUGU
19,B19,0.118 KA relative to UGCAUGU
20,B20,0.106 KA relative to UGCAUGU
